{"source": "a collection of fitness landscapes (doi:10.1126/science.1257360)", "parents": {"B1": {"name": "PhoQ; a variant is named by its letters at X, in order, P23837 (parent)", "chain": "MKKLLRLFFPLSLRVRFLLATAAVVLVLSLAYGMVALIGYSVSFDKTTFRLLRGESNLFYTLAKWENNKLHVELPENIDKQSPTMTLIYDENGQLLWAQRDVPWLMKMIQPDWLKSNGFHEIEADVNDTSLLLSGDHSIQQQLQEVREDDDDAEMTHSVAVNVYPATSRMPKLTIVVVDTIPVELKSSYMVWSWFIYVLSANLLLVIPLLWVAAWWSLRPIEALAKEVRELEEHNRELLNPATTRELTSLVRNLNRLLKSERERYDKYRTTLTDLTHSLKTPLXXLQXXLRSLRSEKMSVSDAEPVMLEQISRISQQIGYYLHRASMRGGTLLSRELHPVAPLLDNLTSALNKVYQRKGVNISLDISPEISFVGEQNDFVEVMGNVLDNACKYCLEFVEISARQTDEHLYIVVEDDGPGIPLSKREVIFDRGQRVDTLRPGQGVGLAVAREITEQYEGKIVAGESMLGGARMEVIFGRQHSAPKDE"}}, "note": "This is one part of the list.", "data": [{"variants_of": "B1", "assay": "enrichment ratio after two sorts for PhoP signalling (ratio (wild type AVST 3.29)); higher = more functional", "conditions": "with PhoP (E. coli)", "values": [{"variant": "LRDT", "enrichment ratio": "≤ 0.25"}, {"variant": "STVK", "enrichment ratio": 8.45}, {"variant": "DRHA", "enrichment ratio": "≤ 0.25"}, {"variant": "MFYE", "enrichment ratio": "≤ 0.25"}, {"variant": "YGWM", "enrichment ratio": "≤ 0.25"}, {"variant": "TPQG", "enrichment ratio": "≤ 0.25"}, {"variant": "RSAA", "enrichment ratio": "≤ 0.25"}, {"variant": "NKTL", "enrichment ratio": "≤ 0.25"}, {"variant": "VLSQ", "enrichment ratio": "≤ 0.25"}, {"variant": "ALIV", "enrichment ratio": 0.811}, {"variant": "WVKK", "enrichment ratio": "≤ 0.25"}, {"variant": "TWIY", "enrichment ratio": "≤ 0.25"}, {"variant": "GMWY", "enrichment ratio": "≤ 0.25"}, {"variant": "YWNQ", "enrichment ratio": "≤ 0.25"}, {"variant": "ARND", "enrichment ratio": "≤ 0.25"}, {"variant": "PMQM", "enrichment ratio": "≤ 0.25"}, {"variant": "AYKL", "enrichment ratio": "≤ 0.25"}, {"variant": "AYEY", "enrichment ratio": "≤ 0.25"}, {"variant": "YAHS", "enrichment ratio": "≤ 0.25"}, {"variant": "DELT", "enrichment ratio": "≤ 0.25"}, {"variant": "HAAG", "enrichment ratio": "≤ 0.25"}, {"variant": "MFHT", "enrichment ratio": "≤ 0.25"}, {"variant": "PDFN", "enrichment ratio": "≤ 0.25"}, {"variant": "HSPH", "enrichment ratio": "≤ 0.25"}, {"variant": "LSWC", "enrichment ratio": "≤ 0.25"}, {"variant": "SVPV", "enrichment ratio": 5}, {"variant": "FHNW", "enrichment ratio": "≤ 0.25"}, {"variant": "IQRK", "enrichment ratio": "≤ 0.25"}, {"variant": "FLHM", "enrichment ratio": "≤ 0.25"}, {"variant": "MTKE", "enrichment ratio": "≤ 0.25"}, {"variant": "KRRW", "enrichment ratio": "≤ 0.25"}, {"variant": "VCRP", "enrichment ratio": "≤ 0.25"}, {"variant": "IEHV", "enrichment ratio": "≤ 0.25"}, {"variant": "GLLS", "enrichment ratio": "≤ 0.25"}, {"variant": "DVRS", "enrichment ratio": "≤ 0.25"}, {"variant": "LFIC", "enrichment ratio": "≤ 0.25"}, {"variant": "FQEA", "enrichment ratio": "≤ 0.25"}, {"variant": "EMIN", "enrichment ratio": "≤ 0.25"}, {"variant": "KLYI", "enrichment ratio": "≤ 0.25"}, {"variant": "DFSS", "enrichment ratio": "≤ 0.25"}, {"variant": "FGIQ", "enrichment ratio": "≤ 0.25"}, {"variant": "QMRW", "enrichment ratio": "≤ 0.25"}, {"variant": "WLIA", "enrichment ratio": "≤ 0.25"}, {"variant": "RFVN", "enrichment ratio": "≤ 0.25"}, {"variant": "KKNC", "enrichment ratio": "≤ 0.25"}, {"variant": "PKAG", "enrichment ratio": "≤ 0.25"}, {"variant": "ELHY", "enrichment ratio": "≤ 0.25"}, {"variant": "QLCC", "enrichment ratio": "≤ 0.25"}, {"variant": "AKWA", "enrichment ratio": "≤ 0.25"}, {"variant": "STWW", "enrichment ratio": "≤ 0.25"}, {"variant": "WKQF", "enrichment ratio": "≤ 0.25"}, {"variant": "HSIW", "enrichment ratio": "≤ 0.25"}, {"variant": "PWRQ", "enrichment ratio": "≤ 0.25"}, {"variant": "KYCR", "enrichment ratio": "≤ 0.25"}, {"variant": "TMQR", "enrichment ratio": 8.83}, {"variant": "KPDH", "enrichment ratio": "≤ 0.25"}, {"variant": "VMAQ", "enrichment ratio": "≤ 0.25"}, {"variant": "LWFI", "enrichment ratio": "≤ 0.25"}, {"variant": "VKRR", "enrichment ratio": "≤ 0.25"}, {"variant": "QPIQ", "enrichment ratio": "≤ 0.25"}, {"variant": "HLCC", "enrichment ratio": "≤ 0.25"}, {"variant": "TFVS", "enrichment ratio": "≤ 0.25"}, {"variant": "VHFC", "enrichment ratio": "≤ 0.25"}, {"variant": "MYWP", "enrichment ratio": "≤ 0.25"}, {"variant": "HTIL", "enrichment ratio": "≤ 0.25"}, {"variant": "HIVH", "enrichment ratio": "≤ 0.25"}, {"variant": "AERD", "enrichment ratio": "≤ 0.25"}, {"variant": "GNWF", "enrichment ratio": "≤ 0.25"}, {"variant": "LMDE", "enrichment ratio": "≤ 0.25"}, {"variant": "WKLH", "enrichment ratio": "≤ 0.25"}, {"variant": "HHQP", "enrichment ratio": "≤ 0.25"}, {"variant": "FDLA", "enrichment ratio": "≤ 0.25"}, {"variant": "FMLF", "enrichment ratio": "≤ 0.25"}, {"variant": "ASYV", "enrichment ratio": "≤ 0.25"}, {"variant": "SIMH", "enrichment ratio": 10}, {"variant": "FRPW", "enrichment ratio": "≤ 0.25"}, {"variant": "NLYY", "enrichment ratio": "≤ 0.25"}, {"variant": "MNKC", "enrichment ratio": "≤ 0.25"}, {"variant": "SRCG", "enrichment ratio": "≤ 0.25"}, {"variant": "DYSN", "enrichment ratio": "≤ 0.25"}, {"variant": "GMHP", "enrichment ratio": "≤ 0.25"}, {"variant": "PEYW", "enrichment ratio": "≤ 0.25"}, {"variant": "SLCI", "enrichment ratio": 10.1}, {"variant": "KLVY", "enrichment ratio": "≤ 0.25"}, {"variant": "FMVG", "enrichment ratio": "≤ 0.25"}, {"variant": "HNQT", "enrichment ratio": "≤ 0.25"}, {"variant": "STAQ", "enrichment ratio": 7.82}, {"variant": "SNRM", "enrichment ratio": "≤ 0.25"}, {"variant": "TNVE", "enrichment ratio": "≤ 0.25"}, {"variant": "WLTW", "enrichment ratio": "≤ 0.25"}, {"variant": "FYIL", "enrichment ratio": "≤ 0.25"}, {"variant": "VITQ", "enrichment ratio": "≤ 0.25"}, {"variant": "PPRP", "enrichment ratio": "≤ 0.25"}, {"variant": "ETAP", "enrichment ratio": "≤ 0.25"}, {"variant": "SVQP", "enrichment ratio": "≤ 0.25"}, {"variant": "VGNH", "enrichment ratio": "≤ 0.25"}, {"variant": "TIEP", "enrichment ratio": "≤ 0.25"}, {"variant": "YNLY", "enrichment ratio": "≤ 0.25"}, {"variant": "YFIK", "enrichment ratio": "≤ 0.25"}, {"variant": "ERWK", "enrichment ratio": "≤ 0.25"}, {"variant": "NSID", "enrichment ratio": "≤ 0.25"}, {"variant": "MSWS", "enrichment ratio": 8.59}, {"variant": "MRDC", "enrichment ratio": "≤ 0.25"}, {"variant": "KMVW", "enrichment ratio": "≤ 0.25"}, {"variant": "HAQY", "enrichment ratio": "≤ 0.25"}, {"variant": "IVKK", "enrichment ratio": "≤ 0.25"}, {"variant": "PHFT", "enrichment ratio": "≤ 0.25"}, {"variant": "GMCE", "enrichment ratio": "≤ 0.25"}, {"variant": "SGKM", "enrichment ratio": "≤ 0.25"}, {"variant": "MSMW", "enrichment ratio": "≤ 0.25"}, {"variant": "DSQP", "enrichment ratio": "≤ 0.25"}, {"variant": "PYSV", "enrichment ratio": "≤ 0.25"}, {"variant": "HKGN", "enrichment ratio": "≤ 0.25"}, {"variant": "MWIP", "enrichment ratio": "≤ 0.25"}, {"variant": "FAKI", "enrichment ratio": "≤ 0.25"}, {"variant": "LEIY", "enrichment ratio": "≤ 0.25"}, {"variant": "RMSY", "enrichment ratio": "≤ 0.25"}, {"variant": "AVIN", "enrichment ratio": 0.567}, {"variant": "STLF", "enrichment ratio": 14.6}, {"variant": "SKDW", "enrichment ratio": "≤ 0.25"}, {"variant": "LLNS", "enrichment ratio": "≤ 0.25"}, {"variant": "HCQK", "enrichment ratio": "≤ 0.25"}, {"variant": "GRWV", "enrichment ratio": "≤ 0.25"}, {"variant": "NDSW", "enrichment ratio": "≤ 0.25"}, {"variant": "EHSQ", "enrichment ratio": "≤ 0.25"}, {"variant": "LPQA", "enrichment ratio": "≤ 0.25"}, {"variant": "DNCI", "enrichment ratio": "≤ 0.25"}, {"variant": "NSIT", "enrichment ratio": "≤ 0.25"}, {"variant": "YRID", "enrichment ratio": "≤ 0.25"}, {"variant": "DHNA", "enrichment ratio": "≤ 0.25"}, {"variant": "VKNW", "enrichment ratio": "≤ 0.25"}, {"variant": "KERQ", "enrichment ratio": "≤ 0.25"}, {"variant": "LTEP", "enrichment ratio": "≤ 0.25"}, {"variant": "PWIP", "enrichment ratio": "≤ 0.25"}, {"variant": "KGIQ", "enrichment ratio": "≤ 0.25"}, {"variant": "MGPC", "enrichment ratio": "≤ 0.25"}, {"variant": "WCLS", "enrichment ratio": "≤ 0.25"}, {"variant": "YVRD", "enrichment ratio": "≤ 0.25"}, {"variant": "ADMF", "enrichment ratio": "≤ 0.25"}, {"variant": "GLPF", "enrichment ratio": "≤ 0.25"}, {"variant": "RPLC", "enrichment ratio": "≤ 0.25"}, {"variant": "VMNN", "enrichment ratio": "≤ 0.25"}, {"variant": "RYMR", "enrichment ratio": "≤ 0.25"}, {"variant": "EDRW", "enrichment ratio": "≤ 0.25"}, {"variant": "YQEC", "enrichment ratio": "≤ 0.25"}, {"variant": "MDRL", "enrichment ratio": "≤ 0.25"}, {"variant": "AGVA", "enrichment ratio": 1.62}, {"variant": "RCSE", "enrichment ratio": "≤ 0.25"}, {"variant": "VLEW", "enrichment ratio": "≤ 0.25"}, {"variant": "PAMD", "enrichment ratio": "≤ 0.25"}, {"variant": "NCYI", "enrichment ratio": "≤ 0.25"}, {"variant": "LTLT", "enrichment ratio": "≤ 0.25"}, {"variant": "EHTD", "enrichment ratio": "≤ 0.25"}, {"variant": "KDVM", "enrichment ratio": "≤ 0.25"}, {"variant": "SLHM", "enrichment ratio": "≤ 0.25"}, {"variant": "NMLD", "enrichment ratio": "≤ 0.25"}, {"variant": "IKIS", "enrichment ratio": "≤ 0.25"}, {"variant": "GIPD", "enrichment ratio": "≤ 0.25"}, {"variant": "ELDQ", "enrichment ratio": "≤ 0.25"}, {"variant": "CSLE", "enrichment ratio": "≤ 0.25"}, {"variant": "DFTG", "enrichment ratio": "≤ 0.25"}, {"variant": "GGMT", "enrichment ratio": "≤ 0.25"}, {"variant": "MQPI", "enrichment ratio": "≤ 0.25"}, {"variant": "HEIT", "enrichment ratio": "≤ 0.25"}, {"variant": "LTLW", "enrichment ratio": "≤ 0.25"}, {"variant": "PAYN", "enrichment ratio": "≤ 0.25"}, {"variant": "ERIS", "enrichment ratio": "≤ 0.25"}, {"variant": "LDFQ", "enrichment ratio": "≤ 0.25"}, {"variant": "TSAE", "enrichment ratio": 6.74}, {"variant": "SEEA", "enrichment ratio": "≤ 0.25"}, {"variant": "HTTR", "enrichment ratio": "≤ 0.25"}, {"variant": "PPMC", "enrichment ratio": "≤ 0.25"}, {"variant": "WDLE", "enrichment ratio": "≤ 0.25"}, {"variant": "PEPL", "enrichment ratio": "≤ 0.25"}, {"variant": "HLQI", "enrichment ratio": "≤ 0.25"}, {"variant": "MNWE", "enrichment ratio": 17.9}, {"variant": "LDDR", "enrichment ratio": "≤ 0.25"}, {"variant": "QLVD", "enrichment ratio": "≤ 0.25"}, {"variant": "APGC", "enrichment ratio": "≤ 0.25"}, {"variant": "YHLK", "enrichment ratio": "≤ 0.25"}, {"variant": "GMLR", "enrichment ratio": "≤ 0.25"}, {"variant": "HTGW", "enrichment ratio": "≤ 0.25"}, {"variant": "WVKG", "enrichment ratio": "≤ 0.25"}, {"variant": "ISPR", "enrichment ratio": "≤ 0.25"}, {"variant": "YGTT", "enrichment ratio": "≤ 0.25"}, {"variant": "MVFD", "enrichment ratio": "≤ 0.25"}, {"variant": "PSWN", "enrichment ratio": "≤ 0.25"}, {"variant": "TTVN", "enrichment ratio": 7.71}, {"variant": "RWPK", "enrichment ratio": "≤ 0.25"}, {"variant": "ELNP", "enrichment ratio": "≤ 0.25"}, {"variant": "RDVE", "enrichment ratio": "≤ 0.25"}, {"variant": "FQGF", "enrichment ratio": "≤ 0.25"}, {"variant": "LYAI", "enrichment ratio": "≤ 0.25"}, {"variant": "QPGK", "enrichment ratio": "≤ 0.25"}, {"variant": "YNPN", "enrichment ratio": "≤ 0.25"}]}]}
